The supplement of paper PMC3334620
In all, about 33,000 sequences were measured (“E-score (-0.5 to 0.5)”: median about -0.054, highest 2% from about 0.35 on). The list shows a part of the results.

Molecular target: T1, Stb5 (UniProt P38699)
T1 sequence: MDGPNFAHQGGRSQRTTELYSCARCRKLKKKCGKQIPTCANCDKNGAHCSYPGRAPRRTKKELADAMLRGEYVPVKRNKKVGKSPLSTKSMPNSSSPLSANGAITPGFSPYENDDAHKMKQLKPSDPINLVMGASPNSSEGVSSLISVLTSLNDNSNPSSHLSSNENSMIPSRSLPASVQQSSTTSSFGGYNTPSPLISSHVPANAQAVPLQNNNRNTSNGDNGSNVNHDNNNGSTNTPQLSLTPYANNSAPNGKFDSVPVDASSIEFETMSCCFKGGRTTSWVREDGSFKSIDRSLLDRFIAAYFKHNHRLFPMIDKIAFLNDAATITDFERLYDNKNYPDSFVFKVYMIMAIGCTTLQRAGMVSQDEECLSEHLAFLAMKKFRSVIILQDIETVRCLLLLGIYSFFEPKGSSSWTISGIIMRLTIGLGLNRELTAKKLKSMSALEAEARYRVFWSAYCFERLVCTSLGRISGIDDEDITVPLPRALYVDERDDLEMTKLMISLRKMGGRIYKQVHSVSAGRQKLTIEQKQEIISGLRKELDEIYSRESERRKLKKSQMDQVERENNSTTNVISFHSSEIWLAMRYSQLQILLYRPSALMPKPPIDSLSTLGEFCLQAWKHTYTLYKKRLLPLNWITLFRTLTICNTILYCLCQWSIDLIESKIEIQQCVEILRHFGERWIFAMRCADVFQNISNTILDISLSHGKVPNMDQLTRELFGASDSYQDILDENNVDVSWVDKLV
Test: PBM E-score (8-mer binding enrichment) (E-score (-0.5 to 0.5)); higher = stronger / more preferred TF binding; most listed sequences are background and not binding sites
Conditions: protein concentration: 200 nM; construct: GST-full length
How it was run: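 Full-length yeast transcription factors or their DNA-binding domains, GST-tagged and expressed with PURExpress, were applied at about 100-200 nM to universal all-10-mer Agilent arrays. These arrays had been made double-stranded by primer extension on fresh or once-stripped slides. Detection used fluorescent anti-GST, normalisation used masliner, and E-scores for ungapped eight-base words pooled with reverse complements came from the Universal PBM Analysis Suite.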

Sequence | PBM E-score
CCCCAGGA | -0.299
AATGACCG | 0.365
ACAGTAGT | -0.277
CGTCTATA | 0.0913
CACGACCC | -0.0181
GCGTAGAA | -0.0526
ACTGTGTG | -0.0165
ATTTTTAC | -0.0222
AACCTAGT | -0.0124
ATGTTGTA | -0.271
AGCTGCTG | -0.192
CCGCCGGC | 0.421
CCGTCAGA | 0.164
ACACAAAA | 0.0656
CTTTCCCC | 0.0457
ACTGAAAC | 0.0402
ACGCGATC | -0.0459
ATGCCCAA | -0.116
GCCGATGA | 0.357
GGCTTCAC | 0.0671
GAGACACC | 0.0825
AGTCTGAT | -0.333
CGAGGACA | 4e-05
ATCTGGTG | -0.124
CATATAGA | 0.0684

Sequence | PBM E-score
CTAAACGA | -0.0103
CTTCTCGA | -0.267
GACCTAAC | 0.0774
GGAAAGGA | 0.072
AAGTGTGT | -0.323
AACGCCGG | 0.44
CCTGTACC | -0.17
AATGAGAA | -0.0972
CCGACAAC | 0.339
CCTGTCAC | -0.0595
AGTCGAAT | -0.199
ACCCACCT | -0.144
AACCGTTC | 0.128
AGGTGGGC | -0.207
GTGAAGTA | -0.0746
CCCGAGGG | 0.0429
TATAACAA | 0.109
ATTTCGTC | -0.206
CGCACGAC | 0.0385
ATTGCACA | -0.251
CGGGGAGC | 0.116
GAGAAGTA | -0.0166
AGTGTGAT | -0.203
ACGCACAC | -0.126
ATAAGCGA | 0.0109

Sequence | PBM E-score
CGTCACAG | -0.0707
AGTTCCTA | -0.085
GCCATGGC | -0.0611
ACAGAAGC | -0.155
CTCCCAGA | -0.19
AGCACCCA | 0.0695
GAGGGGGA | -0.12
ATACGAAC | -0.164
GCCTGGGA | -0.132
ACTGATCG | -0.0682
ACGGCAGA | 0.018
CATCGAAC | -0.148
AAACTACA | -0.173
ATCATGTG | -0.165
AACTTAGT | 0.0174
GGCTCCCC | -0.104
ATAATGCG | 0.0614
CGGGATAC | 0.178
ACATTTAA | 0.122
GCCCGCAC | 0.166
ACGATATG | -0.0261
ATGTACGC | -0.204
CTGACTCC | -0.0214
GCACGGTA | 0.206
CTCTTAAC | -0.0534

Sequence | PBM E-score
ACGAGAAC | -0.162
ACCTGATC | -0.115
TATCAAGA | -0.221
AACGCTTG | -0.143
AAACCCTC | -0.0384
TGTATAAA | -0.026
ACAGAACC | -0.131
TACTATAA | 0.0655
CAGCAACC | -0.0927
CGAGAGCG | 0.0103
ACCCATAT | -0.252
GTTTACGA | -0.24
AACGATGA | 0.0901
CAGGCGCG | -0.0248
CCGCTCCG | 0.361
ACTCGGAG | 0.0913
AATAGGTC | 0.164
ACCGATTA | 0.312
GCCCGGAC | 0.29
AAACCACT | -0.109
AATAGCGA | 0.0264
CTGATTGA | -0.0894
GAACAGGC | -0.181
CCTCCGAA | 0.0721
AATACCTG | -0.0286

Sequence | PBM E-score
ACTCGCTA | 0.00748
GCACTTCC | -0.0868
GCAATCAC | 0.19
AATGAGGC | -0.0256
ATTCCCAC | -0.0437
AAAGGCGG | 0.267
TAGGCAAA | 0.00762
CAAATGCC | 0.308
CCGAGCGA | 0.141
GGGATAAC | 0.225
AAGACCCG | 0.325
AATAGGCT | -0.0163
CTAATTGC | -0.00404
CAGCGCCC | 0.0893
GGGTCTCA | 0.00241
CCTGTTGC | -0.102
GTCGGCAA | 0.276
ACCGACTA | 0.318
AGCTGCAA | -0.141
GACCCCGA | 0.377
GGGTGGAC | -0.087
CGATTTGA | -0.0937
GAACTCCC | 0.0614
ACTTTATC | 0.00836
GGGCCTCA | -0.0159

Sequence | PBM E-score
GGAGCTTA | 0.161
TACTTCGA | -0.0536
ACGTAAAC | -0.116
AAACCGTC | 0.135
GGGCTAGA | 0.118
AATGCTAT | -0.0247
ACTCCTCC | -0.0151
AGGCATGA | -0.251
TCGAAAAA | 0.128
AAGCCTCA | -0.161
TCTCCTAA | -0.238
AACAGCGC | 0.346
GGTTCCAA | 0.251
ACAACTAG | -0.0413
AGGTCGAT | -0.0145
GGCTTCCC | -0.184
GATACGAC | 0.0298
ACTCTTAG | -0.262
GATCTCCA | -0.155
GAACCAAC | -0.116
ATCCGCCA | 0.18
GATATCGA | -0.12
ACGTTCAT | -0.285
GACACCCA | -0.181
GGGCCAGA | -0.0992

Sequence | PBM E-score
AAGAATCT | -0.021
ACGTTAGA | -0.116
CAGACGAC | -0.253
CAAACGCC | 0.243
AAGTCACA | -0.203
GGAATGAC | 0.00773
GGTTCCCA | -0.169
CGCCGTTA | 0.356
AAATCAGT | -0.0369
ATTGGAGC | -0.193
CCCAACAG | -0.245
ATAACCAC | 0.17
GTCACGAC | -0.047
AGTGATAC | -0.128
ATGTCTAA | -0.172
GAACAGGA | -0.0775
CAAGTTGC | -0.0787
CCTCCACA | -0.152
GTGCCTTA | -0.11
AGTACCTC | -0.144
GTTTAACA | 0.0292
ACTCGTAC | -0.0512
